# From the supplement of paper PMC8728848
# Some of the results follow.
# B1: Banana lectin (Musa acuminata) (protein)
# chain: MNGAIKVGAWGGNGGSAFDMGPAYRIISVKIFSGDVVDGVDVTFTYYGKTETRHYGGSGGTPHEIVLQEGEYLVGMAGEVANYHGAVVLGKLGFSTNKKAYGPFGNTGGTPFSLPIAAGKISGFFGRGGKFLDAIGVYLEPLEHHHHHH
# Columns and labels:
# Experiment in all cases: glycan array binding signal (z-score within array); higher = stronger binding
# Settings in all cases: glycan notation: IUPAC condensed, linker removed
# GalNAc(b1-3)GalNAc = molecular target: GalNAc(b1-3)GalNAc
# Summary of the method: (§1)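 Columns mapping to the same glycan were averaged after glycan names were converted to IUPAC-condensed notation. The data come from 3228 arrays in the Consortium for Functional Glycomics database, limited to those with an available protein sequence. Binding is reported as a within-array Z-score averaged across arrays of one protein sequence and across linkers.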
# GalNAc(b1-3)GlcNAc = molecular target: GalNAc(b1-3)GlcNAc
# Summary of the method: as §1
# GalNAc(b1-4)Gal(b1-4)Glc = molecular target: GalNAc(b1-4)Gal(b1-4)Glc
# Summary of the method: as §1
# GalNAc(b1-4)GlcNAc = molecular target: GalNAc(b1-4)GlcNAc
# Summary of the method: as §1
# [1] = molecular target: GalNAc(b1-4)GlcNAc(b1-2)Man
# Summary of the method: as §1
# [2] = molecular target: GalNAc(b1-4)GlcNAc(b1-2)Man(a1-3)[GalNAc(b1-4)GlcNAc(b1-2)Man(a1-6)]Man(b1-4)GlcNAc(b1-4)GlcNAc
# Summary of the method: as §1
# [3] = molecular target: GalNAc(b1-4)GlcNAc(b1-3)GalNAc(b1-4)GlcNAc
# Summary of the method: as §1
# GalNAc(b1-4)GlcNAc6S = molecular target: GalNAc(b1-4)GlcNAc6S
# Summary of the method: as §1
# GalNAc(b1-6)GalNAc = molecular target: GalNAc(b1-6)GalNAc
# Summary of the method: as §1
# GalNAc3S(b1-4)GlcNAc = molecular target: GalNAc3S(b1-4)GlcNAc
# Summary of the method: as §1
# GalNAc3S(b1-4)GlcNAc3S = molecular target: GalNAc3S(b1-4)GlcNAc3S
# Summary of the method: as §1
# [4] = molecular target: GalNAc3S(b1-4)[Fuc(a1-3)]GlcNAc
# Summary of the method: as §1
# GalNAc4S6S(b1-4)GlcNAc = molecular target: GalNAc4S6S(b1-4)GlcNAc
# Summary of the method: as §1
# GalNAc6S(b1-4)GlcNAc = molecular target: GalNAc6S(b1-4)GlcNAc
# Summary of the method: as §1
# [5] = molecular target: Glc(a1-2)Glc(a1-3)Glc(a1-3)Man(a1-2)Man(a1-2)Man(a1-3)[Man(a1-2)Man(a1-3)[Man(a1-2)Man(a1-6)]Man(a1-6)]Man(b1-4)GlcNAc
# Summary of the method: as §1
# [6] = molecular target: Glc(a1-2)Glc(a1-3)Glc(a1-3)Man(a1-2)Man(a1-2)Man(a1-3)[Man(a1-3)[Man(a1-6)]Man(a1-6)]Man(b1-4)GlcNAc
# Summary of the method: as §1
# [7] = molecular target: Glc(a1-3)Glc(a1-3)Man(a1-2)Man(a1-2)Man(a1-3)[Man(a1-2)Man(a1-3)[Man(a1-2)Man(a1-6)]Man(a1-6)]Man(b1-4)GlcNAc(b1-4)GlcNAc
# Summary of the method: as §1
# [8] = molecular target: Glc(a1-3)Glc(a1-3)Man(a1-2)Man(a1-2)Man(a1-3)[Man(a1-3)[Man(a1-6)]Man(a1-6)]Man(b1-4)GlcNAc
# Summary of the method: as §1
# [9] = molecular target: Glc(a1-3)Man(a1-2)Man(a1-2)Man(a1-3)[Man(a1-2)Man(a1-3)[Man(a1-2)Man(a1-6)]Man(a1-6)]Man(b1-4)GlcNAc(b1-4)GlcNAc
# Summary of the method: as §1
# Glc(a1-4)Glc = molecular target: Glc(a1-4)Glc
# Summary of the method: as §1
# [10] = molecular target: Glc(a1-4)Glc(a1-4)Glc(a1-4)Glc
# Summary of the method: as §1
# Glc(a1-6)Glc(a1-6)Glc = molecular target: Glc(a1-6)Glc(a1-6)Glc
# Summary of the method: as §1
# [11] = molecular target: Glc(a1-6)Glc(a1-6)Glc(a1-6)Glc
# Summary of the method: as §1
# [12] = molecular target: Glc(a1-6)Glc(a1-6)Glc(a1-6)Glc(a1-6)Glc(a1-6)Glc
# Summary of the method: as §1
# [13] = molecular target: Glc(b1-3)Glc(b1-3)Glc(b1-3)Glc(b1-3)Glc(b1-3)Glc
# Summary of the method: as §1
# Glc(b1-4)Glc = molecular target: Glc(b1-4)Glc
# Summary of the method: as §1
# Glc(b1-6)Glc = molecular target: Glc(b1-6)Glc
# Summary of the method: as §1
# [14] = molecular target: Glc(b1-6)Glc(b1-6)Glc(b1-6)Glc(b1-6)Glc(b1-6)Glc
# Summary of the method: as §1
# GlcA(b1-3)Gal = molecular target: GlcA(b1-3)Gal
# Summary of the method: as §1
# GlcA(b1-3)GlcNAc = molecular target: GlcA(b1-3)GlcNAc
# Summary of the method: as §1
# [15] = molecular target: GlcA(b1-3)GlcNAc(b1-4)GlcA(b1-3)GlcNAc(b1-4)GlcA(b1-3)GlcNAc(b1-4)GlcA(b1-3)GlcNAc(b1-4)GlcA(b1-3)GlcNAc(b1-4)GlcA(b1-3)GlcNAc(b1-4)GlcA(b1-3)GlcNAc(b1-4)GlcA(b1-3)GlcNAc
# Summary of the method: as §1
# GlcA(b1-6)Gal = molecular target: GlcA(b1-6)Gal
# Summary of the method: as §1
# [16] = molecular target: GlcA3S(b1-3)Gal(b1-4)GlcNAc(b1-2)Man
# Summary of the method: as §1
# [17] = molecular target: GlcA3S(b1-3)Gal(b1-4)GlcNAc(b1-3)Gal(b1-4)Glc
# Summary of the method: as §1
# [18] = molecular target: GlcNAc(a1-3)Gal(b1-4)GlcNAc
# Summary of the method: as §1
# [19] = molecular target: GlcNAc(a1-4)Gal(b1-3)GlcNAc
# Summary of the method: as §1
# [20] = molecular target: GlcNAc(a1-4)Gal(b1-4)GalNAc
# Summary of the method: as §1
# [21] = molecular target: GlcNAc(a1-4)Gal(b1-4)GlcNAc
# Summary of the method: as §1
# [22] = molecular target: GlcNAc(a1-4)Gal(b1-4)GlcNAc(b1-3)Gal(b1-4)Glc
# Summary of the method: as §1
# [23] = molecular target: GlcNAc(a1-4)Gal(b1-4)GlcNAc(b1-3)Gal(b1-4)GlcNAc
# Summary of the method: as §1
# [24] = molecular target: GlcNAc(a1-4)Gal(b1-4)GlcNAc(b1-3)Gal(b1-4)GlcNAc(b1-3)Gal(b1-4)GlcNAc
# Summary of the method: as §1
# [25] = molecular target: GlcNAc(a1-4)Gal(b1-4)GlcNAc(b1-3)Gal(b1-4)[Fuc(a1-3)]GlcNAc(b1-3)Gal(b1-4)[Fuc(a1-3)]GlcNAc
# Summary of the method: as §1
# [26] = molecular target: GlcNAc(a1-6)Gal(b1-4)GlcNAc
# Summary of the method: as §1
# [27] = molecular target: GlcNAc(b1-2)Gal(b1-3)GalNAc
# Summary of the method: as §1
# [28] = molecular target: GlcNAc(b1-2)Man(a1-3)[GlcNAc(b1-2)Man(a1-6)]Man(b1-4)GlcNAc(b1-4)GlcNAc
# Summary of the method: as §1
binder,measurement,setting,value
B1,glycan array binding signal (z-score),GalNAc(b1-3)GalNAc,-0.221
same,glycan array binding signal (z-score),GalNAc(b1-3)GlcNAc,-0.193
same,glycan array binding signal (z-score),GalNAc(b1-4)Gal(b1-4)Glc,-0.153
same,glycan array binding signal (z-score),GalNAc(b1-4)GlcNAc,-0.198
same,glycan array binding signal (z-score),[1],-0.207
same,glycan array binding signal (z-score),[2],-0.18
same,glycan array binding signal (z-score),[3],-0.261
same,glycan array binding signal (z-score),GalNAc(b1-4)GlcNAc6S,-0.209
same,glycan array binding signal (z-score),GalNAc(b1-6)GalNAc,-0.221
same,glycan array binding signal (z-score),GalNAc3S(b1-4)GlcNAc,-0.23
same,glycan array binding signal (z-score),GalNAc3S(b1-4)GlcNAc3S,-0.196
same,glycan array binding signal (z-score),[4],-0.178
same,glycan array binding signal (z-score),GalNAc4S6S(b1-4)GlcNAc,-0.203
same,glycan array binding signal (z-score),GalNAc6S(b1-4)GlcNAc,-0.054
same,glycan array binding signal (z-score),[5],1.56
same,glycan array binding signal (z-score),[6],1.31
same,glycan array binding signal (z-score),[7],1.42
same,glycan array binding signal (z-score),[8],0.946
same,glycan array binding signal (z-score),[9],1.43
same,glycan array binding signal (z-score),Glc(a1-4)Glc,-0.155
same,glycan array binding signal (z-score),[10],-0.205
same,glycan array binding signal (z-score),Glc(a1-6)Glc(a1-6)Glc,-0.209
same,glycan array binding signal (z-score),[11],-0.188
same,glycan array binding signal (z-score),[12],1.57
same,glycan array binding signal (z-score),[13],-0.842
same,glycan array binding signal (z-score),Glc(b1-4)Glc,-0.206
same,glycan array binding signal (z-score),Glc(b1-6)Glc,-0.204
same,glycan array binding signal (z-score),[14],-0.99
same,glycan array binding signal (z-score),GlcA(b1-3)Gal,-0.191
same,glycan array binding signal (z-score),GlcA(b1-3)GlcNAc,-0.202
same,glycan array binding signal (z-score),[15],-0.99
same,glycan array binding signal (z-score),GlcA(b1-6)Gal,-0.195
same,glycan array binding signal (z-score),[16],-0.202
same,glycan array binding signal (z-score),[17],-0.216
same,glycan array binding signal (z-score),[18],0.842
same,glycan array binding signal (z-score),[19],0.861
same,glycan array binding signal (z-score),[20],0.095
same,glycan array binding signal (z-score),[21],0.495
same,glycan array binding signal (z-score),[22],0.518
same,glycan array binding signal (z-score),[23],0.681
same,glycan array binding signal (z-score),[24],0.556
same,glycan array binding signal (z-score),[25],0.311
same,glycan array binding signal (z-score),[26],-0.224
same,glycan array binding signal (z-score),[27],-0.212
same,glycan array binding signal (z-score),[28],0.105
